# Test results taken from the supplement of paper PMC3334620.
# The full ranking holds about 33,000 sequences; the median of “E-score (-0.5 to 0.5)” is about -0.035, and the highest 2% start at about 0.34. Some of the results follow.
# Biological target: T1, Mot3 (UniProt P54785)
# T1 sequence: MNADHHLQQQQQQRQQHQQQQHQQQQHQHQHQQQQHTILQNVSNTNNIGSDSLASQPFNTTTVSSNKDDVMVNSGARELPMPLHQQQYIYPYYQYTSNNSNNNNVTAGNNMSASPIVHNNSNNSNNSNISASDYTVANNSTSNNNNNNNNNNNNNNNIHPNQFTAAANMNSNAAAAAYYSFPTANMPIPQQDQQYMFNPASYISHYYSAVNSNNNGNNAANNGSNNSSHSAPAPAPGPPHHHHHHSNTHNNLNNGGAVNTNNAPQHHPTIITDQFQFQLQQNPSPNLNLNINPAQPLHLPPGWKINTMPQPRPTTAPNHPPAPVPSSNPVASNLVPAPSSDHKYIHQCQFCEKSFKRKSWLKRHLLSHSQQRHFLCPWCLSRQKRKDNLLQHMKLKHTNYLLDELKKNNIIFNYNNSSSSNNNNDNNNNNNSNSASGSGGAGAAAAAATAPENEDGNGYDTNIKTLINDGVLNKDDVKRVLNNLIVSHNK
# Test: PBM E-score (8-mer binding enrichment) (E-score (-0.5 to 0.5)); higher = stronger / more preferred TF binding; most listed sequences are background and not binding sites
# Conditions: protein concentration: 200 nM; construct: GST-full length
# Procedure, shortened: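 Universal all-10-mer Agilent arrays, fresh or stripped once, were converted to double-stranded form by primer extension. GST-tagged yeast transcription factors from PURExpress in vitro transcription/translation, full-length or DNA-binding domain only, were applied at about 100-200 nM and detected with fluorescent anti-GST. After masliner normalisation, the Universal PBM Analysis Suite scored each ungapped eight-base word together with its reverse complement by E-score.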
row,Sequence,PBM E-score
1,CCAAAGTC,-0.189
2,GGCCAAGA,-0.37
3,CGTGAGAG,-0.159
4,CCCTGCAG,-0.0541
5,CCTTCACG,0.0566
6,AACTAAGT,0.0135
7,GCATTACA,0.35
8,CAAAAACC,0.0383
9,CTGACAGC,-0.17
10,GCTGGGGA,-0.157
11,CTCGCACA,-0.03
12,AACATGTC,0.296
13,GACAGACA,-0.00417
14,ATTCGGGA,-0.217
15,CCATCGTA,0.105
16,CCCGGGAA,-0.203
17,AATTCTTA,0.0262
18,ACCGCAAA,-0.0982
19,ATTATCTG,-0.0449
20,CTGGAGGC,-0.114
21,CTTTGCCA,-0.0932
22,AGTTTATC,0.122
23,ATTGCGGC,-0.165
24,ATCTTACG,0.129
25,AAGTTTGG,-0.102

row,Sequence,PBM E-score
1,CCGCCGAG,-0.215
2,AATAGAGG,-0.219
3,ATTAACGA,0.215
4,AACTGCGG,-0.116
5,CGACAACG,0.00035
6,AGAGTATG,-0.133
7,CCAATTTC,-0.228
8,CGATACAG,-0.105
9,CCGGGAAG,-0.116
10,AAGATCGC,-0.0568
11,AAATCGCT,-0.132
12,CAGTAGCC,-0.215
13,GGTACTTA,-0.0015
14,ACCTTTGC,0.0791
15,ATAGAGTC,-0.0873
16,CCAGTGGG,-0.139
17,CCGTAGCA,-0.189
18,CATTGACG,-0.0292
19,GAACGAAA,-0.0743
20,AGGTTAAC,0.225
21,CCGTCCGA,-0.201
22,ACACGTCC,0.161
23,ATATGTTG,0.246
24,AAGGCCAG,0.0775
25,AGCGTACT,-0.129

row,Sequence,PBM E-score
1,CTACCAAG,-0.0675
2,CAACGAAG,-0.00267
3,TACTTGAA,0.201
4,GCAGTACA,0.0866
5,AGACCAAT,-0.0148
6,AGGGCGGG,-0.23
7,ATATCTCC,-0.119
8,GTGAAGAA,0.116
9,ATGGACAG,-0.172
10,CCCCAAAG,-0.132
11,GGAAATCA,-0.0276
12,GTCGAGAA,0.0169
13,AGGTGCAA,0.148
14,AAACGCGA,0.155
15,GTCGCGTA,0.309
16,ATCGCCAT,-0.0627
17,ATCCGCTC,-0.252
18,ATAAAGAC,-0.00279
19,ATTAAAAG,0.106
20,AAGCGAGT,-0.0166
21,ACTTATAG,-0.0587
22,CGAGAATA,-0.0446
23,ACACACAC,0.291
24,GGATTACA,0.371
25,AGTGATAT,-0.178

row,Sequence,PBM E-score
1,CATCGGCA,0.104
2,CATCTTGG,-0.0926
3,CGAAGTAC,0.00632
4,GAAGGGGC,-0.127
5,TGAGAACA,0.15
6,CGTGGTCA,0.0859
7,AATATTAC,0.242
8,ACTCTGGC,-0.393
9,ATAAAATG,-0.0118
10,CAGTATCC,-0.0235
11,GAACCGAC,-0.0799
12,CGGATAAC,0.139
13,GGGCGCAC,-0.281
14,CTCCCTAC,0.019
15,AGCGGGAT,-0.277
16,ATATCGCA,-0.233
17,AAGGACCA,-0.13
18,ATCATCGG,-0.248
19,ATAACAAT,0.126
20,ACCCCCAC,-0.221
21,TAAGGGGA,0.0151
22,ACTTCGAA,-0.0542
23,ATTGACGC,0.09
24,AGAGTCAT,-0.241
25,AGCGTCAA,-0.046

row,Sequence,PBM E-score
1,GCGCGTTA,0.235
2,ACACGTGT,0.363
3,AGGATGAC,-0.178
4,ATGGTCGA,-0.0987
5,ACAGATGG,-0.119
6,CGGTATTA,-0.0614
7,GAACGTCA,-0.147
8,GGAAGAGA,0.0688
9,CCGCCAGC,-0.227
10,ATTGAGTA,0.165
11,CCGGGAGG,-0.236
12,CAGAAGGC,0.232
13,CGAAATGA,0.0554
14,CTGTTGGA,0.0392
15,AGACAGAA,-0.00345
16,GATATGGC,-0.45
17,ATTTCATG,-0.00351
18,GGAGACTA,-0.0846
19,TAGCTGAA,-0.0324
20,ATGGCCTG,-0.157
21,AAAGAGCC,-0.167
22,CTTTGCTC,-0.176
23,AGCTTAAG,0.00822
24,GTCTGCAC,-0.211
25,GCTATATA,0.105

row,Sequence,PBM E-score
1,CGATCAAC,0.0859
2,CCCCGCTC,-0.426
3,ACGGTCCA,-0.0522
4,ATGAGATG,-0.0735
5,ACATCACG,0.152
6,ACCGCCCC,-0.0601
7,TACACTAA,0.159
8,AGGGCTGC,-0.252
9,GAAACCCC,0.00285
10,CATCAGAA,0.0925
11,GGACACGA,0.0135
12,GGGTTTGA,-0.165
13,GTGTGTCA,0.269
14,ATTTCGGA,-0.137
15,AGCAAGAA,-0.0228
16,AGTTCCCG,-0.116
17,CGCTTCCG,-0.233
18,AACTAGGC,0.32
19,ACCGGACT,-0.371
20,CAGCGATG,-0.197
21,GAGCCAAC,0.0965
22,GAGTTGAC,-0.0628
23,CAGTCCTA,-0.167
24,CTTGCCGA,-0.0816
25,ATAACCTA,0.131

row,Sequence,PBM E-score
1,CCGCACCG,-0.0682
2,ATTAGCTC,-0.0536
3,ACCTCAGC,-0.124
4,ACATTGAA,0.196
5,ATCTAGCC,-0.296
6,CAGACTCG,-0.238
7,ACACGCTC,0.305
8,GGGGCGCA,-0.306
9,CACTCGCC,-0.0805
10,GGGCCTGA,-0.00612
11,AGGGCATG,-0.0789
12,AGCCTACA,0.227
13,ACCGTGAA,0.00486
14,GACGAATA,0.00511
15,CGTACAGA,0.0129
16,AAGGAATG,0.114
17,ATCTTCAA,0.0714
18,AATATGAG,0.106
19,ACAGGTGC,0.278
20,ACTGATGG,-0.195
21,ACGGGCGA,-0.158
22,ACGTAGTA,0.122
23,AGTGCCAG,-0.0756
24,CCGGTACA,0.0242
25,CAACAGCC,0.2

row,Sequence,PBM E-score
1,ATGTCATC,0.0793
2,CACGAAGA,0.0476
3,AATACGTC,0.0595
4,CTTACGCA,0.301
5,TCATACAA,0.00761
6,CCAGCTCG,-0.248
7,ATATTCTG,-0.00598
8,CTATTGAA,0.03
9,CGGAGGCC,-0.224
10,CACTGGCA,0.014
11,ATTACATC,0.356
12,ATTAGCGA,-0.0915
13,ACTTGTCC,-0.15
14,CTAAGGTA,0.226
15,AGTGTATG,-0.123
16,AGGCGTCA,0.156
17,ACGCTTAG,-0.0324
18,AATCGTCT,-0.136
19,AGACTACA,0.0747
20,CAGGTTCG,-0.00261
21,ATTTATGC,-0.0077
22,GACAAAAC,0.0176
23,TTAAGTAA,0.0348
24,CTAAGGAC,-0.231
25,CGGGGACC,-0.0971

row,Sequence,PBM E-score
1,ATTCCGAG,-0.22
2,AAGCATTC,-0.0643
3,AGCCGCAG,-0.211
4,ACTGTACC,0.0206
5,GAGAGACA,-0.16
6,CGTAATCC,0.186
7,GGTAGCTA,-0.0263
8,TAGTGACA,0.124
9,AGGTATAT,0.0556
10,ACAAGCCT,0.116
11,AGATAAGG,-0.0101
12,AGGGGATC,-0.231
13,ATTGTCAG,0.0338
14,AGCGACCC,-0.252
15,GTCTGCAA,-0.0815
16,CTAGTTGA,0.089
17,CCCTGTAA,0.251
18,ACTCAGTG,-0.127
19,CCTCGTCA,-0.0766
